The campaign covered roughly 410,000 compounds. About 5,000 (1.2%) were called active. The inconclusive results got no clear call from the source; some entries with a clear call stand among them for comparison. Calls come from the whole dose curve; as a rule, active = well fitted inhibition curve with a large enough effect; inconclusive = small, poorly fitted or top-dose-only effect; inactive = no such curve, though single readings can be large or run the other way. Where the call is inconclusive, the potency comes from a doubtful curve fit.
Assay: qHTS for Inhibitors of TGF-b; note: nearly all actives have a fitted effect of over 65% in size
Conditions: HepG2 CAGA-GFP TGF-b/SMAD3 reporter, GFP fluorescence, 18 h, TGF-beta stimulated, 500 pg/mL final; series mostly up to 46.1 µM; activity, negative = inhibition: at the top concentration
Method in brief: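 Inhibition was scored as loss of TGF-beta-induced (500 pg/mL final, 18 hours, 37 degrees C) GFP in HEPG2 cells carrying a CAGA-GFP reporter, in DMEM with 1% FBS. Well GFP was summed per cell; Activity was normalised to unstimulated and stimulated DMSO wells, then concentration-response fitting.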
For `COc1ccc(CCNC(=O)C2CCN(S(=O)(=O)N3CCOCC3)CC2)cc1OC`, the Potency was inconclusive: 35.5 µM [inhibitor, single point].
For `CN(CC1COc2ccccc2O1)C(=O)Cn1cc(C(F)(F)F)ccc1=O` (stereo not drawn), the “activity, negative = inhibition” value was inactive: 8.9%.
In the case of `CCOc1ccccc1CNC(=O)CCC(=O)N1CCSc2ccccc21`, the Potency is reported as inconclusive: 35.5 µM [inhibitor, single point].
For `Cc1cc(NC(=O)c2cc([N+](=O)[O-])cc([N+](=O)[O-])c2)n(-c2ccccc2)n1`, the Potency was inconclusive: 10 µM [inhibitor, partial curve].
With `CCNS(=O)(=O)c1ccc(CCC(=O)Nc2cc(Cl)ccc2Oc2ccccc2)cc1` the Potency was inconclusive: 10 µM [inhibitor, partial curve].
In the case of `CCC/C=C1/CCCOC(C(=O)NCCN2CCOCC2)(C(F)(F)F)C1` (stereo not drawn), the Potency is reported as inconclusive: 11.2 µM [inhibitor, partial curve, poor fit].
In the case of `FC(F)(F)c1cccc(NC(=S)Nc2cccc(Cl)c2)c1`, the Potency is reported as inconclusive: 35.5 µM [inhibitor, partial curve, poor fit].
In the case of `COc1ccccc1-n1cnnc1SCc1csc(-c2ccccc2)n1`, the “activity, negative = inhibition” value is reported as inactive: -4.38%.
In the case of `CCN1C(=O)C(CC(=O)Nc2c(C)cccc2C)SC1=Nc1ccc(S(N)(=O)=O)cc1` (stereo not drawn), the Potency is reported as inconclusive: 0.112 µM [inhibitor, full curve, poor fit].
For `CC(C)CCNC(=O)c1onc(CSc2ccc(F)cc2)c1C(=O)NCCC(C)C`, the “activity, negative = inhibition” value was inactive: 7.74%.
In the case of `Cc1[nH]ccc2cc3nc4ccccc4c3cc12`, the Potency is reported as inconclusive: 22.4 µM [inhibitor, single point].
With `O=C(COC(=O)COc1ccccc1Cl)Nc1ccccc1OC(F)F` the Potency was inconclusive: 0.562 µM [inhibitor, partial curve, poor fit].
With `C/C(=N\NC(=O)c1cc(C(C)(C)C)[nH]n1)C12CC3CC(CC(C3)C1)C2` the “activity, negative = inhibition” value was inactive: 14.2%.
In the case of `CCc1nc2c(OCc3ccc(Cl)cc3)cccn2c1N(C)C(=O)c1ccc(C)cc1`, the Potency is reported as inconclusive: 35.5 µM [inhibitor, single point].
With `CSc1nnnn1-c1ccc(Cl)cc1` the “activity, negative = inhibition” value was inactive: 10.9%.
In the case of `COc1ccc(Nc2nnc(-c3ccc(C)c(S(=O)(=O)NCc4nc5ccccc5[nH]4)c3)c3ccccc23)cc1`, the Potency is reported as active: 7.94 µM.
For `CCC(C)Sc1oc(-c2ccco2)nc1S(=O)(=O)c1ccc(Cl)cc1` (stereo not drawn), the “activity, negative = inhibition” value was inactive: -24.9%.
For `Cc1c(Cl)c(C(F)(F)F)nn1CC(=O)N1CCSCC1`, the Potency was inconclusive: 3.55 µM [inhibitor, single point].
In the case of `CCC1NC(=S)N(C2CCCCC2)C1=O` (stereo not drawn), the “activity, negative = inhibition” value is reported as inactive: -0.741%.
With `O=C(O)c1ccc(N(c2ccccc2)c2ccccc2)cc1` the Potency was inconclusive: 17.8 µM [inhibitor, single point].
In the case of `CC(C)C[C@H](N)c1nnc(S(=O)(=O)Cc2ccc(F)cc2)o1`, the Potency is reported as inconclusive: 31.6 µM [inhibitor, single point].
With `COc1ccc(S(=O)(=O)N2CCN(CC(=O)N3CCc4ccccc4C3)CC2)cc1OC` the Potency was inconclusive: 35.5 µM [inhibitor, single point].
In the case of `O=C(CN1C(=O)C(=O)c2ccccc21)c1ccc(Cl)cc1`, the “activity, negative = inhibition” value is reported as inactive: -26.7%.
In the case of `COc1ccccc1CNc1nc(NCc2ccc3occc3c2)c2sccc2n1`, the Potency is reported as inconclusive: 20 µM [inhibitor, single point].
For `Cc1ccc2c(c1)[C@H]1[C@H](CO2)[C@H](c2ccccc2)[C@]2(C)C(=O)N(C)CC(=O)N12`, the “activity, negative = inhibition” value was inactive: -5.79%.
In the case of `N#Cc1nc(-c2ccccc2Cl)oc1NCc1ccco1`, the Potency is reported as inconclusive: 35.5 µM [inhibitor, single point].
With `CNC(=S)N(Cc1cc2cc(C)cc(C)c2[nH]c1=O)C1CCCC1` the Potency was inconclusive: 7.94 µM [inhibitor, partial curve, poor fit].
With `CCn1nc(C)c(CN2CCCC(C(=O)c3cccc(OC(C)C)c3)C2)c1C` (stereo not drawn) the “activity, negative = inhibition” value was inactive: -6.58%.
In the case of `Cc1nc(N/N=C/c2ccccn2)sc1C`, the Potency is reported as inconclusive: 0.199 µM [inhibitor, full curve, poor fit].
For `CCCCCCCCCCCC(=O)NC(C(=O)OCC)C(O)c1cccc([N+](=O)[O-])c1` (stereo not drawn), the Potency was inconclusive: 15.8 µM [inhibitor, partial curve, poor fit].
For `COc1ccc(CN(C)C(=O)c2cc(-c3ccccc3)nc3ccc(C)cc23)c(OC)c1OC`, the “activity, negative = inhibition” value was inactive: -7.85%.
In the case of `COCCNC(=S)N/N=C(\C)c1ccc(Cl)s1`, the Potency is reported as inconclusive: 10 µM [inhibitor, partial curve, poor fit].
With `Cc1cc(C(=O)CSc2nc3ccccc3[nH]2)c(C)n1Cc1ccco1` the Potency was inconclusive: 35.5 µM [inhibitor, single point].
With `O=C1CCSc2ccc(Cl)cc2N1Cc1ccc(Cl)cc1` the Potency was inconclusive: 35.5 µM [inhibitor, single point].
With `NC(c1csc(Nc2ccc(C(=O)c3ccccc3)cc2)n1)C1CCCCC1` (stereo not drawn) the Potency was inconclusive: 22.4 µM [inhibitor, single point].
In the case of `Cc1ccccc1OCC(=O)Nc1ccc(C(=O)OCc2cc(=O)n3ccsc3n2)cc1`, the “activity, negative = inhibition” value is reported as inactive: 3.77%.
For `CCCn1c(=S)[nH]c2cc(C(=O)N3CCN(C(=O)OCC)CC3)ccc2c1=O`, the Potency was inconclusive: 35.5 µM [inhibitor, single point].
With `Cc1cc(C(=O)CCl)c(C)n1-c1ccon1` the Potency was inconclusive: 35.5 µM [inhibitor, single point].
With `C[C@H](CO)N1C[C@H](C)[C@@H](CN(C)Cc2cccc(C(F)(F)F)c2)OCc2cnnn2CCCC1=O` the “activity, negative = inhibition” value was inactive: -9.58%.
With `CCN(C(=O)CCc1nc(-c2ccc(C)cc2)no1)c1cccc(Cl)c1` the Potency was active: 12.6 µM.
In the case of `COc1ccc(CC(=O)OCc2cc3ccc(C)cc3[nH]c2=O)cc1`, the Potency is reported as inconclusive: 0.112 µM [inhibitor, full curve, poor fit].
With `CN(C)c1ccc(CNC(=O)C2CCCN(S(=O)(=O)c3ccc4c(c3)CCCC(=O)N4)C2)cc1` (stereo not drawn) the Potency was inconclusive: 0.708 µM [inhibitor, full curve, poor fit].
In the case of `COc1ccc(C(=O)Nc2ccc(Cl)c(S(=O)(=O)Nc3ccccc3OC)c2)cc1`, the Potency is reported as inconclusive: 15.8 µM [inhibitor, partial curve, poor fit].
% is set by controls: 0 for no effect and ±100 for the full control effect; potency is the fitted concentration of half-maximal effect; tags give direction and shape of the fitted curve.
